The other results are listed elsewhere or left out.
molecular target: T1, OsWOX13 (Oryza sativa, UniProt Q5QMM3 1-267); assay: protein-binding microarray (RPBM); PBS, 2% BSA, 51.3 ng/ul salmon testes DNA, 50 uM zinc acetate, 200 nM TF, 25 C, 1 h; high values mean tight binding; conditions: protein: recombinant; tags: N-terminal polyhistidine and DsRed monomer fusion (pET32a); label: CyDye5-dUTP incorporated in the synthesized complementary strand; 3' TTTTT single-stranded linker to array surface; dsDNA, one strand shown
T1 sequence: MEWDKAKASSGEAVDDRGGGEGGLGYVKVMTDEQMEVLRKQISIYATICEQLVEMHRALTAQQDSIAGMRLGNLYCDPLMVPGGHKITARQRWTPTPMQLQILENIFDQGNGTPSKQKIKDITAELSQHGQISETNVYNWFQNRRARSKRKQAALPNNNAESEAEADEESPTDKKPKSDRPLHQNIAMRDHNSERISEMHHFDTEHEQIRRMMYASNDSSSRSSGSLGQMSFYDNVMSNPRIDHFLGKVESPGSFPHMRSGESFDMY
How it was run: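 Using Ni–NTA, transcription factors fused N-terminally to polyhistidine and DsRed were purified after expression in E. coli BL21-CodonPlus. These were incubated at 200 nM with a blocked, double-stranded custom Agilent array for 1 h at 25 °C in a buffer containing 50 µM zinc acetate, and the array was washed. The binding signal is per-feature fluorescence intensity (arbitrary units) on an Axon 4000B scanner.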

Sequence	binding signal
CATGTAGAATTGAATTAAATTAATTACTGTGAGGACAAATCGGAGTCACCTAGTGCAG	14700 fluorescence intensity (a.u.)
ACTTGCAATCACTATTGTGACTGTCAGTAGTCGGTAGCAGCGGAGTCACCTAGTGCAG	15100 fluorescence intensity (a.u.)
TGACAATTACAGTATAAACTGATTTCATTATATTTAACACCGGAGTCACCTAGTGCAG	11200 fluorescence intensity (a.u.)
AGAATGGAAATTAACACTCACATTACCACATGGAATTAAGCGGAGTCACCTAGTGCAG	3190 fluorescence intensity (a.u.)
AATTCCGGGTAATCAGCAAAATGATGACTTTGACGACCAACGGAGTCACCTAGTGCAG	3480 fluorescence intensity (a.u.)
GTTGCAGATTGAGAGCCAAAGACATTATCTTGATTCTATCCGGAGTCACCTAGTGCAG	13100 fluorescence intensity (a.u.)
CCGTGCGCTCGCCTGATTGAGTTCACTGCCACCCGTTGGTCGGAGTCACCTAGTGCAG	3650 fluorescence intensity (a.u.)
CTTTGATAAATTGGAGACTTGAAAATGTATTTTGAAAGTTCGGAGTCACCTAGTGCAG	26200 fluorescence intensity (a.u.)
GCTTGTGATTTGTGCTGTACACGGTTACTGTAGCCAAGTTCGGAGTCACCTAGTGCAG	22700 fluorescence intensity (a.u.)
CATCTGTAATGTCATGATTTATTTATAGAATATATTAAATCGGAGTCACCTAGTGCAG	3760 fluorescence intensity (a.u.)
GTTTGATTATCTGAACTCCAGCAGAAATTGCATTGGTTCTCGGAGTCACCTAGTGCAG	26800 fluorescence intensity (a.u.)
ATAATTATTCTGTTAATTAATCAATTATTATCTGGGAATCCGGAGTCACCTAGTGCAG	63600 fluorescence intensity (a.u.)
GCCGTGTGATTAGCCGTTTACGTACCGTTCGGATCTGGTCCGGAGTCACCTAGTGCAG	40200 fluorescence intensity (a.u.)
ATTAATTGGTCAATCATGCATGCAAGCATCTGCTTATGGACGGAGTCACCTAGTGCAG	44000 fluorescence intensity (a.u.)
AATGAATTTAGATAGATATATATATCTAGATTCATTAGCACGGAGTCACCTAGTGCAG	7940 fluorescence intensity (a.u.)
TCAGATTGGAAAAGCTTAACTGTTTAAGTTTGGTGATTTCCGGAGTCACCTAGTGCAG	8040 fluorescence intensity (a.u.)
ATATTAATTGATGTCCTGCTAGATATATAGATTAAATCTCCGGAGTCACCTAGTGCAG	43900 fluorescence intensity (a.u.)
CTTATATTATGGATAATTGTAAAAGTAAACTATAGAGCTGCGGAGTCACCTAGTGCAG	7010 fluorescence intensity (a.u.)
CTCCTTTAATTACCATGTATCTCTGTTTTGTACCTCTATCCGGAGTCACCTAGTGCAG	12900 fluorescence intensity (a.u.)
ATTTCCATCTTAATCTCACAATTAATTCTCTCGTGTAAACCGGAGTCACCTAGTGCAG	3280 fluorescence intensity (a.u.)
AAAATTGATACGTACAGATTAAATCAGTACAATCCATACACGGAGTCACCTAGTGCAG	16400 fluorescence intensity (a.u.)

Sequence	binding signal
CTAGACCAATCATCCCATCATCATCTCACAATCATCAGAACGGAGTCACCTAGTGCAG	13500 fluorescence intensity (a.u.)
ATGGAGACTTATACGTGATTTATCTCTTCTATTCAATTGTCGGAGTCACCTAGTGCAG	4430 fluorescence intensity (a.u.)
ATTGGTAGAATTAATCACTAATCAGAGAAACTAATCACTACGGAGTCACCTAGTGCAG	3600 fluorescence intensity (a.u.)
TTTCGTCTTGCTAATTACAGTGATTAATCCGTTATTACATCGGAGTCACCTAGTGCAG	12500 fluorescence intensity (a.u.)
GGTAATGGGTAATGTGTATTAATAGAGGATTAGAGGGTATCGGAGTCACCTAGTGCAG	9910 fluorescence intensity (a.u.)
TAGTACATAATTTGTTTGGACTTTTGACTCCAGGAAAGTTCGGAGTCACCTAGTGCAG	10100 fluorescence intensity (a.u.)
ACCATCAGACAAGCATATAATTGATTGCTCTGATCAAGCGCGGAGTCACCTAGTGCAG	32600 fluorescence intensity (a.u.)
AGTTAGATTGGTTCATGATTGGCTGTAACTTTTAGGACGCCGGAGTCACCTAGTGCAG	51700 fluorescence intensity (a.u.)
TACACCTTATCAATCTACCGGTATAATTCGATCCCACATCCGGAGTCACCTAGTGCAG	7010 fluorescence intensity (a.u.)
AGGTTGATTAACTGTTTCATGAATTTGGTATGTTTGCAGTCGGAGTCACCTAGTGCAG	53300 fluorescence intensity (a.u.)
TCAGAAGATTGATCTTCCCGTGTGGTTACAGGCCAGCTTTCGGAGTCACCTAGTGCAG	14000 fluorescence intensity (a.u.)
CCAAGAAGTGCTAATTGAGGATATTTCGGGTGAGGTCCTCCGGAGTCACCTAGTGCAG	7800 fluorescence intensity (a.u.)
GCGGATTAGCATTCTCGCAAATTTGTAACTTCGATCTATCCGGAGTCACCTAGTGCAG	9840 fluorescence intensity (a.u.)
AAGTTTGATCAAATTTATAGGAAATTTAGCAACATCTAAACGGAGTCACCTAGTGCAG	3910 fluorescence intensity (a.u.)
AGGATTAGCCATAATTGCTACAATAACCCGTATGTGCTAACGGAGTCACCTAGTGCAG	24600 fluorescence intensity (a.u.)
GTTAAATTTTGCTTCCAAACCAAACAGCCTAACAAGCCGTCGGAGTCACCTAGTGCAG	6500 fluorescence intensity (a.u.)
GGACTACGTGACAGATTTTGCAATCCGGTGCCCAATGAAGCGGAGTCACCTAGTGCAG	4200 fluorescence intensity (a.u.)
TCTAAATTTAGCAATCACTTATCCTATACCTCCGCTCGTACGGAGTCACCTAGTGCAG	36900 fluorescence intensity (a.u.)
GAGGCAATCATCTGCATGATGGACATGTAATAATCGGATGCGGAGTCACCTAGTGCAG	20900 fluorescence intensity (a.u.)
GCTGCTTTTGCCAAAATTAATTTGCAACACTTGTGACAAACGGAGTCACCTAGTGCAG	4670 fluorescence intensity (a.u.)
AATTAAAATTGATGATGTTTGTTAGTTTTATTAGCACTATCGGAGTCACCTAGTGCAG	17700 fluorescence intensity (a.u.)

— publication PMC7819943, “Rice protein-binding microarrays: a tool to detect cis-acting elements near promoter regions in rice”
